These results are taken from patent publication US7687508B2, “Cyclic derivatives as modulators of chemokine receptor activity” (Bristol-Myers Squibb Company, priority 2006, dated 2010).

The subject of the assay is Sodium Channel, Site 2.

Structures are written as SMILES. Read-outs that look alike come from different tables or passages of the source.

On to `CC(=O)N[C@@H]1C[C@H](N(C)C(C)C)CC[C@@H]1N1CC[C@H](NC(=O)c2cccc(C(C)(C)C)n2)C1=O` [Example 9, N-((3S)-1-((1S,2R,4R)-2-acetamido-4-(isopropyl(methyl)amino)cyclohexyl)-2-oxo-3-pyrrolidinyl)-6-tert-butyl-2-pyridinecarboxamide], for which the “Na+ channel binding (% inhibition)” value was 13%, 10,000 nM (10,000 nM) and 48%, 30,000 nM (30,000 nM).

Turning to `CC(=O)N[C@@H]1C[C@H](N(C)C)CC[C@@H]1N1CC[C@H](Nc2ncnc3ccc(C(F)(F)F)cc23)C1=O` [Example 8, N-((1R,2S,5R)-5-(dimethylamino)-2-((3S)-2-oxo-3-((6-(trifluoromethyl)-4-quinazolinyl)amino)-1-pyrrolidinyl)cyclohexyl)acetamide], the “Na+ channel binding (% inhibition)” value runs as follows: (10,000 nM) −14%, 10,000 nM; (30,000 nM) 19%, 30,000 nM.

For the compound `CC(C)(C)N[C@@H]1CC[C@H](N2CC[C@H](Nc3ncnc4cnc(C(C)(C)C)nc34)C2=O)[C@H](NS(C)(=O)=O)C1` [Example 13, N-((1R,2S,5R)-5-(tert-butylamino)-2-((3S)-3-((6-tert-butylpyrimido[5,4-d]pyrimidin-4-yl)amino)-2-oxo-1-pyrrolidinyl)cyclohexyl)methanesulfonamide], the “Na+ channel binding (% inhibition)” value was 5%, 10,000 nM (10,000 nM) and 21%, 30,000 nM (30,000 nM).

Take `CN[C@@H]1CC[C@H](N2CC[C@H](Nc3ncnc4ccc(C(F)(F)F)cc34)C2=O)[C@H](NC(C)=O)C1` [Example 3, N-((1R,2S,5R)-5-(methylamino)-2-((3S)-2-oxo-3-((6-(trifluoromethyl)-4-quinazolinyl)amino)-1-pyrrolidinyl)cyclohexyl)acetamide]: the “Na+ channel binding (% inhibition)” value reads like this: (10,000 nM) 17%, 10,000 nM; (30,000 nM) 42%, 30,000 nM.

With `CC(C)(C)N[C@@H]1CC[C@H](N2CC[C@H](NC(=O)c3ccnc(C(C)(C)C)n3)C2=O)[C@H](NS(C)(=O)=O)C1` [Example 11, 2-tert-butyl-N—((S)-1-((1S,2R,4R)-4-(tert-butylamino)-2-(methylsulfonamido)cyclohexyl)-2-oxopyrrolidin-3-yl)pyrimidine-4-carboxamide], the “Na+ channel binding (% inhibition)” value runs as follows: (10,000 nM) 14%, 10,000 nM; (30,000 nM) 34%, 30,000 nM.

For `CO[C@@H]1CC[C@H](N2CC[C@H](Nc3ncnc4ccc(C(F)(F)F)cc34)C2=O)[C@H](CNC(C)=O)C1` [Example 15, N-(((1S,2S,5R)-5-methoxy-2-((3S)-2-oxo-3-((6-(trifluoromethyl)-4-quinazolinyl)amino)-1-pyrrolidinyl)cyclohexyl)methyl)acetamide], the “Na+ channel binding (% inhibition)” value is, setting by setting: (10,000 nM) −5%, 10,000 nM; (30,000 nM) 5%, 30,000 nM.

`CC(C)N(C)[C@@H]1CC[C@H](N2CC[C@H](Nc3ncnc4ccc(C(F)(F)F)cc34)C2=O)[C@H](NC=O)C1` [Example 7, N-((1R,2S,5R)-5-(isopropyl(methyl)amino)-2-((S)-2-oxo-3-(6-(trifluoromethyl)quinazolin-4-ylamino)pyrrolidin-1-yl)cyclohexyl)formamide]: the “Na+ channel binding (% inhibition)” value runs as follows: (10,000 nM) 22%, 10,000 nM; (30,000 nM) 44%, 30,000 nM.

`CCC(=O)N[C@@H]1C[C@H](NC(C)(C)C)CC[C@@H]1N1CC[C@H](NC(=O)c2ccnc(C(C)(C)C)n2)C1=O` [Example 12, 2-tert-butyl-N-((3S)-1-((1S,2R,4R)-4-(tert-butylamino)-2-(propionylamino)cyclohexyl)-2-oxo-3-pyrrolidinyl)-4-pyrimidinecarboxamide]: the “Na+ channel binding (% inhibition)” value is reported as 18%, 10,000 nM (10,000 nM) and 36%, 30,000 nM (30,000 nM).

For the compound `CCC(=O)N[C@@H]1C[C@H](N)CC[C@@H]1N1CC[C@H](Nc2ncnc3ccc(C(F)(F)F)cc23)C1=O` [Example 10, N-((1R,2S,5R)-5-amino-2-((3S)-2-oxo-3-((6-(trifluoromethyl)-4-quinazolinyl)amino)-1-pyrrolidinyl)cyclohexyl)propanamide], the “Na+ channel binding (% inhibition)” value is 18%, 10,000 nM (10,000 nM) and 45%, 30,000 nM (30,000 nM).

Consider `CC(=O)N[C@@H]1C[C@H](N(C)C(C)C)CC[C@@H]1N1CC[C@H](Nc2ncnc3cnc(C(C)(C)C)nc23)C1=O` [Example 1, N-((1R,2S,5R)-2-((3S)-3-((6-tert-butylpyrimido[5,4-d]pyrimidin-4-yl)amino)-2-oxo-1-pyrrolidinyl)-5-(isopropyl(methyl)amino)cyclohexyl)acetamide], for which the “Na+ channel binding (% inhibition)” value is 13%, 10,000 nM (10,000 nM) and 6%, 30,000 nM (30,000 nM).
